According to PubChem BioAssay AID686979 (National Center for Advancing Translational Sciences (NCATS), 2013):
The whole screen tested about 420,000 compounds, of which about 50,000 (12%) were called active. Inconclusive means that the source gave no clear call. Such entries were picked first, then a sample of the others. Calls come from the whole dose curve; as a rule, active = well fitted inhibition curve with a large enough effect; inconclusive = small, poorly fitted or top-dose-only effect; inactive = flat fitted curve, though single readings scatter. Potencies of inconclusive entries are left out as doubtful fits.

Experiment: qHTS for Inhibitors of human tyrosyl-DNA phosphodiesterase 1 (TDP1): qHTS in cells in presence of CPT; note: nearly all actives have a fitted effect of over 55% in size
Settings: chicken DT40 Tdp1-/-;hTDP1 cells + 20 nM CPT, ATP luminescence, 48 h; activity change, negative = growth inhibition: at 46.2 µM (top of the series) unless noted
Outline: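 Chicken DT40 Tdp1-/- cells complemented with human TDP1, 400 cells/well, exposed to compounds plus 20 nM camptothecin for at least 48 h at 37 C; viability read as ATP content by CellTiter-Glo luminescence.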
% is set by controls: 0 for no effect and ±100 for the full control effect; potency is the fitted concentration of half-maximal effect; tags give direction and shape of the fitted curve.

| SMILES | Potency | activity change, negative = growth inhibition |
| --- | --- | --- |
| COc1ccc(-c2ccc3c(c2)[C@@H]2C[C@H](N(C)S(=O)(=O)c4ccccc4)[C@H]([C@H](C)O)C(=O)N2CC3)cc1 | inconclusive [inhibitor, single point] | – |
| CCCCn1nnnc1C(c1cc2ccccc2o1)N1CCN(C(=O)OC(C)(C)C)CC1 (stereo unspecified) | inconclusive [inhibitor, full curve, poor fit] | – |
| CN(C(=O)c1cccc(NC(=O)Cc2ccc(NC(=O)C3CCCN(C(=O)C4CCCC4)C3)cc2)c1)C1CCC1 (stereo unspecified) | inconclusive [inhibitor, single point] | – |
| COc1cc2c(cc1OC)CN(C(C)C(=O)Nc1ccc(NC(C)=O)cc1)CC2 (stereo unspecified) | – | inactive: -21% |
| N#C/C(=C\c1cccnc1)C(=O)NC1CCCCC1 | inconclusive [inhibitor, partial curve, poor fit] | – |
| COC(=O)CCCC1=CC2=C(c3ccccc3)C(=O)C(C)(OC(=O)C3CCCC3)C(=O)C2=CN1c1ccccc1 (stereo unspecified) | inconclusive [inhibitor, partial curve] | – |
| Cc1ccc(C)c(S(=O)(=O)N2CCCC2CNC(=O)C(=O)NCc2ccco2)c1 (stereo unspecified) | inconclusive [inhibitor, single point] | – |
| NC(=O)NC(=O)C(Nc1ccc2c(c1)CCC2)c1ccccc1 (stereo unspecified) | inconclusive [inhibitor, single point] | – |
| O=C(Nc1cccc(-c2nc3cccnc3s2)c1)c1cccnc1Cl | inconclusive [inhibitor, partial curve] | – |
| CC1C=CC(C)C(C(=O)c2ccccc2)C1C(=O)c1ccccc1 (stereo unspecified) | active: 13 µM | – |
| CCOC(=O)Cc1cc(-c2ccc(O)cc2)nc2ccc3ccccc3c12 | inconclusive [inhibitor, partial curve] | – |
| COc1cc(/C=C2\SC(=S)N(N3CCOCC3)C2=O)ccc1O | – | inactive: -14.1% |
| Cc1sc2nc(SCc3nc4ccccc4[nH]3)n(Cc3ccco3)c(=O)c2c1C | inconclusive [inhibitor, single point] | – |
| Cc1cc(C)c(OCC(=O)Nc2ccccc2N2CCOCC2)c(C)c1 | active: 14.1 µM | – |
| CCOC(=O)c1cc(-c2ccc(OC)cc2)nc2c1c(C)nn2CCC(N)=S | inconclusive [inhibitor, single point] | – |
| Cc1ccc(C)c(N2CCN(C(=O)c3ccc(NC4=NC5CS(=O)(=O)CC5S4)cc3)CC2)c1 (stereo unspecified) | inconclusive [inhibitor, single point] | – |
| CCOC(=O)c1c(-c2ccc(C)cc2)csc1/N=C/N(C)C | inconclusive [inhibitor, single point] | – |
| Cc1ccccc1-c1cncnc1NCc1cccs1 | inconclusive [inhibitor, single point] | – |
| O=C(CC1C[C@H](C(=O)N2CCCCC2)[C@@]2(CCc3ccccc3)c3[nH]c4ccccc4c3CCN2C1=O)NCc1cccc(C(F)(F)F)c1 (stereo partly specified) | inconclusive [inhibitor, single point] | – |
| Brc1cccc(-c2nnn3c2nc(NCc2ccc4c(c2)OCO4)c2ccccc23)c1 | inconclusive [inhibitor, single point] | – |
| CCC(=O)c1c(NC(C)C)cc(C)oc1=O | – | inactive: 1.42% |
| O=C1c2ccccc2-c2ccc(C(=O)N3CCCCC3)cc21 | – | inactive: 8.64% |
| CC1(C)CC(=O)C(C(O)c2ccc([N+](=O)[O-])cc2)C(C)(C)N1 (stereo unspecified) | – | inactive: 4.67% |
| COc1cc(NC(=S)N2c3ccccc3CC2C)cc(OC)c1 (stereo unspecified) | – | inactive: 17.8% |

| SMILES | Potency | activity change, negative = growth inhibition |
| --- | --- | --- |
| O=[N+]([O-])c1ccc(N=NN(CCO)CCO)cc1 | – | inactive: -14.4% |
| COc1ccc(CNC(=O)c2cc(=O)c3cc(C)cc(C)c3o2)cc1 | – | inactive: -22.7% |
| COc1ccc(-n2ncc(C(=O)NCc3ccco3)c2C2CCN(C(=O)OC(C)(C)C)CC2)cc1 | inconclusive [inhibitor, single point] | – |
| O=C(NCC(=O)N1CC=C(c2ccccc2)CC1)c1ccco1 | – | inactive: 13.6% |
| CCCCCCCCN1C(=O)[C@H](CC(=O)NCCCOC)C[C@@]2(C(=O)OC)CC(C)(C)CC=C12 | inconclusive [inhibitor, single point] | – |
| COc1cccc(CNS(=O)(=O)c2ccc3c(c2)CC(C)N3C(C)=O)c1 (stereo unspecified) | inconclusive [inhibitor, single point] | – |
| CC(C)NC(=O)N1CCCN(c2nc3ccc(Cl)cc3s2)CC1 | inconclusive [inhibitor, single point] | – |
| CCOC(=O)C(NC(C)=O)(Nc1ccc(F)cc1)C(F)(F)F (stereo unspecified) | – | inactive: -14% |
| NC(=O)C1CN(C(=O)c2cccc(S(=O)(=O)N3CCc4ccccc43)c2)c2ccccc2O1 (stereo unspecified) | inconclusive [inhibitor, single point] | – |
| CC(C)NC(=O)C1CCC(Cn2c(=O)c3sccc3n(Cc3ccc(F)cc3)c2=O)CC1 (stereo unspecified) | inconclusive [inhibitor, partial curve] | – |
| NC(=O)C1(N2CCCCC2)CCN(c2nc(-c3ccccc3)cs2)CC1 | active: 20.6 µM | – |
| COc1ccc2[nH]c(C)c(CCN(Cc3cccs3)C(=S)Nc3ccccc3)c2c1 | inconclusive [inhibitor, single point] | – |
| O=C(Nc1cccnc1)c1cc2cc(Br)ccc2o1 | inconclusive [inhibitor, single point] | – |
| OC[C@@H]1CN(Cc2ccc3c(c2)OCO3)C[C@H](n2cnc3c(N4CCCC4)ncnc32)O1 | inconclusive [inhibitor, partial curve, poor fit] | – |
| O=C(NCC(c1cccnc1)N1CCc2ccccc21)c1cccc(Br)c1 (stereo unspecified) | inconclusive [inhibitor, single point] | – |
| CC(=O)N(C1=C(N2CCOCC2)C(=O)c2ccccc2C1=O)c1ccc(C(=O)O)cc1 | inconclusive [inhibitor, partial curve] | – |
| O=C(COC(=O)c1ccc(Cl)c(S(=O)(=O)N2CCCCCC2)c1)NCc1ccccc1 | active: 23.1 µM | – |
| O=C(Nc1cccnc1)c1ccc(COc2ccccc2Br)o1 | inconclusive [inhibitor, single point] | – |
| Cc1nc2ccccc2c(=O)n1NC(=O)C1CCC(C(C)(C)C)CC1 (stereo unspecified) | inconclusive [inhibitor, single point] | – |
| CCCCOc1ccc(Cc2n[nH]c(=S)n2N)cc1 | inconclusive [inhibitor, partial curve] | – |
| COC(=O)c1c(-c2ccc(Cl)cc2)noc1N1CCN(c2cc(C)ccc2C)CC1 | active: 14.6 µM | – |
| O=C1CS(=O)(=O)C2(C(=O)N(Cc3ccccc3Cl)c3ccccc32)N1c1ccc(F)cc1 (stereo unspecified) | active: 14.6 µM | – |
| COC(=O)c1c(NC(=O)Cc2ccccc2)sc2c1CC(C)(C)NC2(C)C | inconclusive [inhibitor, partial curve, poor fit] | – |
| CCN(CC)C(=O)c1ccc2nc(-c3ccccc3)c(-c3ccccc3)nc2c1 | inconclusive [inhibitor, single point] | – |

| SMILES | Potency | activity change, negative = growth inhibition |
| --- | --- | --- |
| CC(C)(C)c1ccc(/C=C/C(=O)Nc2ccc(S(N)(=O)=O)cc2)cc1 | active: 6.51 µM | – |
| CCC(=O)c1ccc(OCC(O)CN2CCN(S(=O)(=O)N3CCCCC3)CC2)cc1 (stereo unspecified) | inconclusive [inhibitor, single point] | – |
| CCOc1ccccc1C=C1SC(=S)N(CC)C1=O | – | inactive: -4.93% |
| O=C(Cc1ccc(Br)cc1)NCCCn1ccnc1 | – | inactive: 23.6% |
| O=C(CSc1ccc2ccccc2c1)N1CCN(c2ccc(O)cc2)CC1 | active: 13 µM | – |
| NCCNCCNCCNCCN | – | inactive: 5.24% |
| O=[N+]([O-])c1ccc(N2CCN(c3nc(-c4ccc(Cl)cc4)cs3)CC2)cc1 | inconclusive [inhibitor, partial curve] | – |
| CC(C)CC1NC(=O)c2cccnc2-n2c1nc1cc(F)ccc1c2=O (stereo unspecified) | – | inactive: -23.2% |
| Clc1cncc(Cl)c1NNc1c2ccccc2nc2ccccc12 | inconclusive [inhibitor, single point] | – |
| O=C(NC1CCC(O)CC1)c1ccc(NS(=O)(=O)c2cccc([N+](=O)[O-])c2)cc1 (stereo unspecified) | – | inactive: -24.6% |
| O=C(CCc1c[nH]c2ccccc12)NCCc1ccc2c(c1)OCCO2 | inconclusive [inhibitor, partial curve] | – |
| Cc1cc(C)c(C#N)c(SCCS(=O)(=O)c2ccc(Cl)cc2)n1 | inconclusive [inhibitor, single point] | – |
| O=C(NNC(=O)c1ccc(Br)s1)c1csc(N2CCOCC2)n1 | – | inactive: -9.42% |
| O=S(=O)(Nc1ccc2c(c1)nc1n2CCN(Cc2ccccc2)C1)c1ccc(F)cc1 | active: 25.9 µM | – |
| CCC(C)(C)NC(=O)C1CCN(S(=O)(=O)c2ccc3c(c2)CCCN3C(C)=O)CC1 | – | inactive: 2.55% |
| O=C(CN1CCNCC1)Nc1ccc(Oc2ccccc2)cc1 | inconclusive [inhibitor, single point] | – |
| CCOC(=O)CSc1nc(C2CC2)cc(-c2ccc(F)cc2)c1C#N | inconclusive [inhibitor, single point] | – |
| Cc1cc(C)c(NC(=O)CSc2ncc3c(n2)-c2cc(Cl)ccc2N(C)S3(=O)=O)c(C)c1 | active: 0.164 µM | – |
| COc1ccc(CNC(=O)C(=O)NCC2CCCO2)cc1 (stereo unspecified) | active: 16.4 µM | – |
| CCc1nnc(NC(=O)Cc2ccc(OCc3c(C)noc3C)cc2)s1 | – | inactive: -4.15% |
| C=Cc1ccc(Cn2c(C(=O)O)c(CNCc3ccc(F)cc3)c3ccc(C)cc32)cc1 | active: 20.6 µM | – |
| O=C(CCCOc1ccccc1)Nc1ccc(Br)cc1 | – | inactive: -21.7% |
| COC(=O)c1ccc2c(c1)NC(=O)C(N(CC(C)C)CC(C)C)S2 (stereo unspecified) | inconclusive [inhibitor, partial curve, poor fit] | – |
